B1: GPR68, Q15743 (parent)
chain: MGNITADNSSMSCTIDHTIHQTLAPVVYVTVLVVGFPANCLSLYFGYLQIKARNELGVYLCNLTVADLFYICSLPFWLQYVLQHDNWSHGDLSCQVCGILLYENIYISVGFLCCISVDRYLAVAHPFRFHQFRTLKAAVGVSVVIWAKELLTSIYFLMHEEVIEDENQHRVCFEHYPIQAWQRAINYYRFLVGFLFPICLLLASYQGILRAVRRSHGTQKSRKDQIQRLVLSTVVIFLACFLPYHVLLLVRSVWEASCDFAKGVFNAYHFSLLLTSFNCVADPVLYCFVSETTHRDLARLRGACLAFLTCSRTGRAREAYPLGAPEASGKSGAQGEEPELLTKLHPAFQTPNSPGSGGFPTGRLA

Data set [1] covers variants of B1. As to the kind of experiment: cAMP reporter score (Enrich2 score, wild type = 0); higher = more signal; HEK293T, FACS bins.
Data set [2] covers variants of B1. As to the kind of experiment: surface expression score (Enrich2 score, wild type = 0); higher = more signal; HEK293T, FACS bins.

Scores whose standard error is large were omitted. Two further conditions of the source, in which the scores hardly spread, are not listed. Read del as a deletion of the residues named and ins as an insertion between two positions. For part of these data: The data file names ogerin without a concentration.

For the variant R183del, the cAMP reporter score was -0.835 in data set [1] (pH 5.5); -1.74 in data set [1] (pH 6, modulator: ogerin); -0.57 in data set [1] (pH 6.5, modulator: ogerin).
For the variant R189V, the cAMP reporter score in data set [1] (pH 5.5) is -1.01; in data set [1] (pH 6), -0.686; in data set [1] (pH 6, modulator: ogerin), -1.35; in data set [1] (pH 6.5, modulator: ogerin) it was -0.741. Further, the surface expression score in data set [2] is -2.02.
Taken in the same sequence, the figures for R189N were 1.76, 2.18, -1.07, 0.388 and -0.398.
For R189P, the cAMP reporter score in data set [1] (pH 5.5) is -1.5; in data set [1] (pH 6), -1.23; in data set [1] (pH 6, modulator: ogerin), -2.1; in data set [1] (pH 6.5, modulator: ogerin), -1.44. Besides, the surface expression score in data set [2] is -2.67.
As for R189Y, the cAMP reporter score was -0.667 in data set [1] (pH 5.5); -1.2 in data set [1] (pH 6); -1.48 in data set [1] (pH 6, modulator: ogerin); -1.12 in data set [1] (pH 6.5, modulator: ogerin). In data set [2], the surface expression score was -1.22.
R189C: the cAMP reporter score in data set [1] (pH 5.5) is -0.983; in data set [1] (pH 6) it was -1.16; in data set [1] (pH 6, modulator: ogerin), -0.951; in data set [1] (pH 6.5, modulator: ogerin), -0.934. Further, in data set [2], the surface expression score was -0.692.
Regarding R189H, the cAMP reporter score in data set [1] (pH 5.5) was 0.851; in data set [1] (pH 6, modulator: ogerin) it was -0.655; in data set [1] (pH 6.5, modulator: ogerin) it was -2.6.
On to R189M, for which the cAMP reporter score in data set [1] (pH 5.5) was 0.707; in data set [1] (pH 6), -1.27; in data set [1] (pH 6, modulator: ogerin), -0.883; in data set [1] (pH 6.5, modulator: ogerin), -0.278. In addition, in data set [2], the surface expression score is -2.37.
With R189S, the cAMP reporter score in data set [1] (pH 5.5) was -0.126; in data set [1] (pH 6), -0.526; in data set [1] (pH 6, modulator: ogerin), -0.964; in data set [1] (pH 6.5, modulator: ogerin), -1.98. The surface expression score in data set [2] was -0.322.
For the variant R189W, the cAMP reporter score was 0.355 in data set [1] (pH 5.5); -1.07 in data set [1] (pH 6, modulator: ogerin); -0.583 in data set [1] (pH 6.5, modulator: ogerin). The surface expression score in data set [2] is -0.418.
Take R189T: the cAMP reporter score in data set [1] (pH 5.5) is -0.222; in data set [1] (pH 6) it was -0.762; in data set [1] (pH 6, modulator: ogerin), -1.9; in data set [1] (pH 6.5, modulator: ogerin) it was -1.38. For the same variant, the surface expression score in data set [2] is -1.43.
R189F: the cAMP reporter score in data set [1] (pH 5.5) was -0.798; in data set [1] (pH 6, modulator: ogerin), -0.234. Besides, in data set [2], the surface expression score is -0.436.
With R189K, the cAMP reporter score in data set [1] (pH 5.5) was -0.248; in data set [1] (pH 6) it was 0.259; in data set [1] (pH 6, modulator: ogerin) it was -0.414; in data set [1] (pH 6.5, modulator: ogerin), -0.592. For the same variant, the surface expression score in data set [2] is -0.878.
Consider R189D, for which the cAMP reporter score in data set [1] (pH 5.5) is -1.06; in data set [1] (pH 6) it was -1.87; in data set [1] (pH 6, modulator: ogerin), -1.67; in data set [1] (pH 6.5, modulator: ogerin), -1.56. Moreover, in data set [2], the surface expression score is -3.36.
Taken in the same sequence, the figures for R189A were -1.41, -1.73, -1.73, -1.63 and -1.32.
Regarding R189G, the cAMP reporter score in data set [1] (pH 5.5) is -3.07; in data set [1] (pH 6), -0.866; in data set [1] (pH 6, modulator: ogerin) it was -1.3. Also, the surface expression score in data set [2] was -3.47.
With R189Q, the cAMP reporter score in data set [1] (pH 5.5) is -0.278; in data set [1] (pH 6) it was 0.332; in data set [1] (pH 6, modulator: ogerin), -1; in data set [1] (pH 6.5, modulator: ogerin), -1.2. Also, the surface expression score in data set [2] is -0.998.
For the variant R189E, the cAMP reporter score in data set [1] (pH 5.5) was -0.894; in data set [1] (pH 6), -0.828; in data set [1] (pH 6.5, modulator: ogerin) it was -0.516.
Regarding R189I, the cAMP reporter score in data set [1] (pH 5.5) was -0.751; in data set [1] (pH 6, modulator: ogerin), -2; in data set [1] (pH 6.5, modulator: ogerin), -1.3.
On to R189L, for which the cAMP reporter score in data set [1] (pH 5.5) was -0.129; in data set [1] (pH 6), -1.24; in data set [1] (pH 6, modulator: ogerin), -1.11; in data set [1] (pH 6.5, modulator: ogerin), -1.5.
On to N186_Y187del, for which the cAMP reporter score was -0.501 in data set [1] (pH 5.5); -0.861 in data set [1] (pH 6, modulator: ogerin); -0.656 in data set [1] (pH 6.5, modulator: ogerin). Moreover, the surface expression score in data set [2] was -2.53.
Take L191_V192insGSG: the cAMP reporter score in data set [1] (pH 5.5) was -2.07; in data set [1] (pH 6), -1.33; in data set [1] (pH 6, modulator: ogerin), -2.4; in data set [1] (pH 6.5, modulator: ogerin), -1.27. For the same variant, in data set [2], the surface expression score is -1.2.
The corresponding values for L191_V192del are -1.52, -1.12, -1.75, -1.36 and -3.07.
As for N186del, the cAMP reporter score in data set [1] (pH 5.5) was -1.67; in data set [1] (pH 6), -2.32; in data set [1] (pH 6.5, modulator: ogerin), -2.34. The surface expression score in data set [2] was -0.935.
Regarding V192del, the cAMP reporter score in data set [1] (pH 5.5) was -0.239; in data set [1] (pH 6, modulator: ogerin), -2.23; in data set [1] (pH 6.5, modulator: ogerin) it was -1.39. For the same variant, in data set [2], the surface expression score was -2.87.
For Y187I, the cAMP reporter score in data set [1] (pH 5.5) was -0.244; in data set [1] (pH 6, modulator: ogerin), 0.469. Further, the surface expression score in data set [2] was -0.434.
Regarding Y187N, the cAMP reporter score in data set [1] (pH 5.5) is -0.034; in data set [1] (pH 6), -0.141; in data set [1] (pH 6, modulator: ogerin), 0.199; in data set [1] (pH 6.5, modulator: ogerin), -0.308. Moreover, the surface expression score in data set [2] was -0.899.
Taken in the same sequence, the figures for Y187W were 0.693, 0.876, 1.13, -0.006 and 0.173.
Taken in the same sequence, the figures for Y187Q were 0.285, 0.599, 0.72, 0.491 and -1.57.
Take Y187F: the cAMP reporter score in data set [1] (pH 5.5) was -0.896; in data set [1] (pH 6), -1.36; in data set [1] (pH 6, modulator: ogerin), -0.943; in data set [1] (pH 6.5, modulator: ogerin) it was -1.24. The surface expression score in data set [2] was -0.446.
Take Y187P: the cAMP reporter score was -0.524 in data set [1] (pH 5.5); -0.425 in data set [1] (pH 6); -0.958 in data set [1] (pH 6, modulator: ogerin); -0.643 in data set [1] (pH 6.5, modulator: ogerin). In addition, in data set [2], the surface expression score was -2.09.
In the case of Y187R, the cAMP reporter score in data set [1] (pH 5.5) is 0.069; in data set [1] (pH 6), -0.394; in data set [1] (pH 6, modulator: ogerin) it was 0.025; in data set [1] (pH 6.5, modulator: ogerin) it was -1.07. In addition, the surface expression score in data set [2] is -2.75.
Taken in the same sequence, the figures for Y187H were -1.12, -1.05, -0.986, -1.3 and -1.95.

The record behind these values is the GPR68 mutational scans of Howard et al. (2025).
